# PMC4336329 (PLoS ONE, 2015)
# The campaign covered roughly 310,000 compounds. About 2,200 (0.71%) showed an effect of 50% or more. The effect is printed as a negative number. Some of the results follow.
# Biological target: human ether-à-go-go-related gene (hERG) potassium channel (human, UniProt Q12809)
# Assay: primary screen, population patch clamp on CHO cells stably expressing hERG
# human ether-à-go-go-related gene (hERG) potassium channel, sequence (Q12809 whole entry, looked up): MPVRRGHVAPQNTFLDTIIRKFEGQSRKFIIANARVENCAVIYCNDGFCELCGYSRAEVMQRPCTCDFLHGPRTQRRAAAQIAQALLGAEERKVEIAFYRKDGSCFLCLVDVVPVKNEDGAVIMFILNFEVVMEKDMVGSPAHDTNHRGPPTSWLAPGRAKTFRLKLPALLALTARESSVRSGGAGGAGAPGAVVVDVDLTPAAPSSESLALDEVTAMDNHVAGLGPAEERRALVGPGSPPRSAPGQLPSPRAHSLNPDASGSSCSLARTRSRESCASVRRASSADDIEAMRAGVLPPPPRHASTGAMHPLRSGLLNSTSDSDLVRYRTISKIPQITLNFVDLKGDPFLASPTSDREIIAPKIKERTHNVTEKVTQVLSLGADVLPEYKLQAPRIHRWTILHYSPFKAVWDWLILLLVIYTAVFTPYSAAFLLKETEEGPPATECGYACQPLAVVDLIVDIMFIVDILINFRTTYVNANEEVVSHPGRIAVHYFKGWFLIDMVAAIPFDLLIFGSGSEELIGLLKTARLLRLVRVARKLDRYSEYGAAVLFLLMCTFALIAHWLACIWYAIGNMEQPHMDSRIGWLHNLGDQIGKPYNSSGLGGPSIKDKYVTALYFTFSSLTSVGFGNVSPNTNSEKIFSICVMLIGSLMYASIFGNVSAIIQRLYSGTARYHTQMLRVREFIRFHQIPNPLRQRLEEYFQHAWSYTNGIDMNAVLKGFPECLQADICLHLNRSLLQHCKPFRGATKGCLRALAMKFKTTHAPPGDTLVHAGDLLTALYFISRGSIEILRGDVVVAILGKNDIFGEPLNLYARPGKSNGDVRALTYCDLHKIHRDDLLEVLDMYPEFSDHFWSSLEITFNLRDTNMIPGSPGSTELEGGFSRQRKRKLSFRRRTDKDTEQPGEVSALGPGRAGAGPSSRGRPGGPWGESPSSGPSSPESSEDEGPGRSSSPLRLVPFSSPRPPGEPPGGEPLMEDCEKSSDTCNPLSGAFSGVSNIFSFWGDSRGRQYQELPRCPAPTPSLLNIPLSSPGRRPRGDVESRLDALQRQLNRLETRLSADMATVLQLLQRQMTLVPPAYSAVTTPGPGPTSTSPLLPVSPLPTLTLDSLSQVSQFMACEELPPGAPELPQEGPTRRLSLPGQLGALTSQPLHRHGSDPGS
row,Compound,"hERG current change (%, negative = inhibition) at 1uM [%]"
1,CCOC(=O)c1c(NC(=O)COc2ccccc2F)sc2c1CC(C)(C)NC2(C)C,8.47
2,COc1ccc(S(=O)(=O)N2CCC(C(N)=O)CC2)c2ccccc12,8.9
3,CCC(C)(C)N(C(=O)CCC(=O)Nc1cc(C)on1)C(C(=O)NC(C)(C)C)c1ccc(OC)cc1 (stereo not shown),17
4,CC(C)c1cccc(C(C)C)c1OC(=O)NC(=O)c1c(F)cccc1F,14.3
5,Clc1ccc(/C=N/N2CCN(Cc3ccccc3Cl)CC2)cc1,15.7
6,CC(C)NC(=O)CN1CCN(C(=O)c2ccc3oc(CCCc4ccccc4)nc3c2)CC1,-5.99
7,O=C(Cc1ccc(Cl)cc1)N/N=C1\CCCc2ccccc21,4.73
8,O=C(Nc1cccc(F)c1)c1c(F)c(F)c(F)c(F)c1F,-0.347
9,O=C1CC(c2ccc(Br)cc2)NC(c2ccc(Br)cc2)C1c1ccccc1 (stereo not shown),-0.295
10,Cc1cc(C)c(S(=O)(=O)c2ccccc2Cl)c(Cl)n1,6.98
11,CC1(c2ccc(Cl)cc2)NC(=O)N(CC(=O)N2CCN(S(=O)(=O)c3ccccc3)CC2)C1=O (stereo not shown),-12
12,O=C(CCCc1ccccc1)N1CCN(C2CCCCC2)CC1,-23.6
13,CCOc1ccc(-c2nc(N)nc(C)c2-c2ccc(Cl)cc2)c(O)c1,-4.33
14,Cc1cc(O)c(C=Nc2ccc(Cl)cn2)c(=O)o1,11.7
15,O=C(NCc1ccccc1Br)c1ccco1,12.5
16,Cc1ccc(/C=N/Nc2ccc(F)cc2)s1,18.9
17,N#CCCN(CCN1CCCC1)S(=O)(=O)c1ccc(-c2ccc([N+](=O)[O-])cc2)cc1,-76.5
18,CC(C)=C1C2CCC1C1C(=O)N(c3ccc(C)c(C)c3)C(=O)C21 (stereo not shown),6.65
19,Cc1ccc(Cl)cc1N1CCN(S(=O)(=O)c2ccc3c(c2)NC(=O)C(C)C(=O)N3)CC1 (stereo not shown),7.93
20,CC(=O)Nc1ccc(S(=O)(=O)Nc2nccc(C3Cc4ccccc4C(=O)O3)n2)cc1 (stereo not shown),13.3

row,Compound,"hERG current change (%, negative = inhibition) at 1uM [%]"
1,Cc1cccc(OC(C)C(=O)Nc2ccc(N3CCCCC3)cc2)c1 (stereo not shown),4.63
2,Cc1ccc(NC(=O)N2CCN(c3ccccn3)CC2)cc1,6.19
3,O=C(O)c1cccc(NC(=S)NC(=O)c2cncc(Br)c2)c1,8.81
4,CC1c2cc3c(cc2CCN1C(=O)c1ccc(Cl)cc1)OCCCO3 (stereo not shown),18.8
5,Cc1c(CN2CCCC(C)C2)c(O)n(CCO)c(=O)c1C#N (stereo not shown),-0.601
6,CCCOc1ccccc1C1SCC(=O)Nc2c1c(=O)[nH]n2C(C)CCC (stereo not shown),12.2
7,Cc1ccccc1-c1nc2c3ccccc3nc(=S)n2[nH]1,16.2
8,c1ccc(-c2nn3c(-c4ccccc4)nnc3s2)cc1,22
9,Cc1ccc(NC(=O)CSc2nnc(-c3ccco3)o2)cc1,7
10,CC(C)(C)c1csc(NC(=O)c2ccccc2O)n1,5.62
11,CN(C)c1ccc(N2C(=O)CC(Sc3ccccc3C(=O)O)C2=O)cc1 (stereo not shown),12.4
12,CC(=O)c1sc2nc(=O)c(C)nn2c1C,3.48
13,CC1(C)CC2(CC(c3ccccc3F)c3ccc(O)c(O)c3O2)NC(=S)N1 (stereo not shown),14.1
14,O=C(O)C1C(c2ccccc2)C(C(=O)OCc2ccco2)C1c1ccccc1 (stereo not shown),-0.639
15,CCN1CCCC1CNC(=O)c1ccc2c(=O)n(CCOC)c(=O)[nH]c2c1 (stereo not shown),18.9
16,Cc1ccccc1Cn1c([N+](=O)[O-])cnc1C,-0.527
17,COc1ccc2c(c1)O[C@@H](c1cccc(C(F)(F)F)c1)[C@H](O)C2=O,9.31
18,CCOC(=O)c1sc(=NC(=O)c2ccc(C)c(C)c2)n(C)c1C,14.8
19,CNC(=O)c1ccc(-c2cc(C(F)(F)F)nn2C)s1,16.9
20,CCOC(=O)C1=C(C)C(c2ccccc2OC)NC(=S)N1 (stereo not shown),3.52

row,Compound,"hERG current change (%, negative = inhibition) at 1uM [%]"
1,O=C(N/N=C/c1c(Cl)cccc1Cl)c1cccc(F)c1,4.45
2,Cc1ccnc(NC(=O)CCCc2c[nH]c3ccccc23)c1,11.6
3,COC(=O)C1=C(NC(=O)COc2ccc3ccccc3c2)CCS1,15.5
4,CC(C)(C)c1ccc(/C=N/NC(=O)C(=O)NCCCN2CCOCC2)cc1,0.93
5,CC1=C(C(=O)OCC(C)C)C(c2ccsc2)NC(=O)N1 (stereo not shown),12
6,Cc1ccc2oc(-c3cccc(NC(=O)C4CCCO4)c3)nc2c1 (stereo not shown),7.46
7,CCCS(=O)(=O)N1CCN(S(=O)(=O)c2ccc(F)cc2)CC1,13.4
8,CC(C)c1ccc(S(=O)(=O)N2CCC3(CC2)OCCO3)cc1,18.2
9,CCc1ccc(OCc2n[nH]c(=S)n2C(C)CCCC(C)C)cc1 (stereo not shown),4.03
10,CCC1=Nc2ccccc2NC2=C1C(=O)CCC2.Cl,-18.7
11,O=C(NCc1ccc(Cl)cc1)c1ccc(COCC(F)(F)F)o1,7.11
12,CCOc1ccccc1N1CCN(CC(=O)Nc2nnc(CC)s2)CC1,14.4
13,Cn1c(=O)c2c(ncn2Cc2ccccc2)n(C)c1=O,10.1
14,COc1cc(C(=O)NCC(c2cccs2)N2CCc3ccccc32)cc(OC)c1OC (stereo not shown),4.14
15,CCN(CC)S(=O)(=O)c1ccc2oc(SCC(=O)NCc3ccccc3)nc2c1,10.9
16,CCOc1ccc(N(CC(=O)NCc2ccccc2OC)S(C)(=O)=O)cc1,3.88
17,O=C1C=C(c2ccccc2C(F)(F)F)C[C@@H](c2ccc3c(c2)OCO3)C1,0.206
18,COc1ccccc1CCNC(=O)c1cccc(S(=O)(=O)N2CCc3ccccc3C2)c1,-12.9
